In paper PMC4336329 (PLoS ONE, 2015):
In all, about 310,000 compounds went through this assay and about 14,000 (4.5%) showed an effect of 50% or more. Effects have a minus sign here. The list shows a part of the results.

Each compound was assayed against human ether-à-go-go-related gene (hERG) potassium channel (human, UniProt Q12809) (assay: primary screen, population patch clamp on CHO cells stably expressing hERG).
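Further: peak tail current of the secondary pulse compared with the same well before compound.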

Chain of human ether-à-go-go-related gene (hERG) potassium channel (Q12809 whole entry, looked up): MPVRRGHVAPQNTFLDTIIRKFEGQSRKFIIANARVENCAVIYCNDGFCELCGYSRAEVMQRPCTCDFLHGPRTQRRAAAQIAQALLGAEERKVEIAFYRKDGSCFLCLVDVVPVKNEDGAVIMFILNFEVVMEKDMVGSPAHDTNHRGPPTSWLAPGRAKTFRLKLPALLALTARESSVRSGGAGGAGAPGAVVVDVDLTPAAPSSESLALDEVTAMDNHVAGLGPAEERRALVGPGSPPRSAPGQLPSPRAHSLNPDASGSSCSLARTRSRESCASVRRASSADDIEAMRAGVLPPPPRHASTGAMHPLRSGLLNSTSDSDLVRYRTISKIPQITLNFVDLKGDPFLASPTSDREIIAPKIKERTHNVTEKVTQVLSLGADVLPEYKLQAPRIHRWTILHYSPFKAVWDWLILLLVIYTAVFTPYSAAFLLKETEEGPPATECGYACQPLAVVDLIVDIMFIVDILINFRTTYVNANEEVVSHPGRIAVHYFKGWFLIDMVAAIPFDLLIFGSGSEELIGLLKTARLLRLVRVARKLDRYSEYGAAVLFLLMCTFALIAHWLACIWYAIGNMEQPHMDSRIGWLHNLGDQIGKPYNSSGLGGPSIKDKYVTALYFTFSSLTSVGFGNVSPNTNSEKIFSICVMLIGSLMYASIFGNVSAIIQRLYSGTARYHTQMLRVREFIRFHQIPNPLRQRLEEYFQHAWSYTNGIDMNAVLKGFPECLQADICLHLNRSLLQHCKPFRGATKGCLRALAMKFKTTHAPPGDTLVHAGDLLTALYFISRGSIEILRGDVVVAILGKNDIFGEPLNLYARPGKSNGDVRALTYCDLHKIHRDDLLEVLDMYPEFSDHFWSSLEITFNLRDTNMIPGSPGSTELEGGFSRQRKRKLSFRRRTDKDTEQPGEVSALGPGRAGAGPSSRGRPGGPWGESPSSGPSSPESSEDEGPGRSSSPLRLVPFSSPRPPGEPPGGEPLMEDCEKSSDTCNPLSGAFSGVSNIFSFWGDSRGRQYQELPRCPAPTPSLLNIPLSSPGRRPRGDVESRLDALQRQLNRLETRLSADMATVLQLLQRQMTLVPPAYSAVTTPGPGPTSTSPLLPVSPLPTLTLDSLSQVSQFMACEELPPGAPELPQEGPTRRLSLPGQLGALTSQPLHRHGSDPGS

Row | SMILES | hERG current change (%, negative = inhibition) at 10uM [%]
1 | O=C(O)c1ccccc1S(=O)(=O)NCC(O)COC1CCCCC1 (stereo not drawn) | -2.65
2 | CCc1nc(NC2CCCCC2)c(C#N)c2c1COC(C)(C)C2 | -7.21
3 | O=C1c2cccnc2Oc2ccc(Cl)cc2N1Cc1ccc(F)cc1 | -12
4 | Cc1nn(-c2cc(N3CCOCC3)ccc2N)c(=O)c2ccccc12 | 0.574
5 | COc1cc2c(cc1OC)C(C)N(C(=O)Cn1ncc3c1-c1ccccc1OC3)CC2 (stereo not drawn) | -16.2
6 | CC(=O)Nc1ccc(S(=O)(=O)NC(=O)C23CC4CC(CC(C4)C2)C3)cc1 | 11.3
7 | CCCCC(=O)Nc1sc2c(c1C(N)=O)CCC2 | -8.36
8 | CC1CN(C(=O)CS(=O)(=O)Cc2ccccc2)CC(C)O1 (stereo not drawn) | 17.1
9 | CCOc1ccc(NC(=S)Nc2cc(OC)c(Cl)cc2OC)cc1 | 9.86
10 | Cc1c(C(=O)O)c(C(=O)O)c2n1CCS2 | 13.1
11 | Cc1ccc(SCCC(=O)N2CCOCC2)cc1 | -7.3
12 | C/C(CC(=O)Nc1ccc(Cl)cc1Cl)=N\NC(=O)c1ccco1 | -9.19
13 | O=C1CN(C(=O)c2ccc(F)c(S(=O)(=O)N3CCOCC3)c2)c2ccccc2N1 | 63.3
14 | Cc1nc(N2CCC(C(N)=O)CC2)c2c(-c3cccs3)csc2n1 | -0.812
15 | CCC(=O)Nc1ccccc1N1CCN(S(C)(=O)=O)CC1 | 7.15
16 | Cc1nc2ccc(C(=O)N3CCN(c4ccccc4)CC3)cc2s1 | -6.64
17 | Cc1ccccc1-n1nnnc1SCC(=O)Nc1ccc(S(=O)(=O)N2CCCC2)cc1 | 18.8
18 | COC(=O)c1ccc(Cl)c(NC(=O)NC23CC4CC(CC(C4)C2)C3)c1 | 5.14
19 | Cc1ccc(S(=O)(=O)N2CCN(C(=O)c3ccc([N+](=O)[O-])cc3)C2)cc1 | -60

Row | SMILES | hERG current change (%, negative = inhibition) at 10uM [%]
20 | COc1ccc(CN2CC[C@H]3C=CC[C@@H](C(=O)NCCc4ccccc4)[C@H]3C2=O)cc1OC | -4.84
21 | CCCC(=O)C1=C(O)C(C(=O)OC)C(C)(C)CC1=NCCc1ccccc1 (stereo not drawn) | -16.3
22 | COC(=O)CNC(c1ccccc1)c1cc(Cl)ccc1NC(=O)c1cccc(Cl)c1 (stereo not drawn) | -2.42
23 | COCCNC(=S)N1CCN(C(c2ccccc2)c2ccccc2)CC1 | -10.1
24 | Cc1cc(OCC(=O)NCc2ccncc2)c2c3c(c(=O)oc2c1)CCCC3 | -62.2
25 | CC1CN(c2ccc(Oc3ccccc3)cc2)c2nc3c(c(=O)n(CC(N)=O)c(=O)n3C)n2C1 (stereo not drawn) | -2.2
26 | CCNC(=S)N(CCO)Cc1cc2cc3c(cc2[nH]c1=O)OCO3 | 6.85
27 | CCCCC(CC)C(=O)Nc1ccc(C#N)cc1 (stereo not drawn) | -52.5
28 | COc1ccc(C2CC(c3c(O)n(CCc4ccccc4)c(=O)[nH]c3=O)=NN2)cc1OC (stereo not drawn) | -8.69
29 | O=C(O)CSc1nnc(-c2ccccc2O)n1Cc1ccccc1 | -3.45
30 | CC(C)[C@H](NC(=O)N1CC(=O)Nc2ccccc21)C(=O)N[C@H](Cc1ccccc1)C(=O)O | 6.01
31 | CSc1ccc(C(c2c(C)[nH][nH]c2=O)c2c(C)[nH][nH]c2=O)cc1 | 14.6
32 | CCn1c(SC)nc(O)c(C(c2ccc(OC)c(O)c2)c2c(O)nc(SC)n(CC)c2=O)c1=O | 10.6
33 | CSc1ccc(CNC(=O)C2CCC(=O)N(CCc3cccc(F)c3)C2)cc1 (stereo not drawn) | -77.1
34 | CCOC(=O)c1cc(-c2ccc(OC)cc2OC)nn1-c1ccc(C(=O)O)cc1 | 19.5
35 | CC(C)(NO)/C(=N\O)c1ccc(Cl)cc1.Cl | 4.54
36 | CN(C)S(=O)(=O)c1cccc(C(=O)OCC(=O)c2ccc3c(c2)NC(=O)CO3)c1 | -11.8
37 | O=C1c2ccccc2C(=O)N1CCCn1c(=O)oc2ccccc21 | 11.4
38 | Cc1cccc(C)c1OCC(=O)N1CC2(C)CC1CC(C)(C)C2 (stereo not drawn) | -7.94

Row | SMILES | hERG current change (%, negative = inhibition) at 10uM [%]
39 | Cc1sccc1/C=N/NC(=O)c1ccco1 | 7.32
40 | CCOC(=O)N1CCN(C(=O)COc2ccc([N+](=O)[O-])cc2)CC1 | -43
41 | COC(=O)c1ccc(C)c(NC(=O)CCNC(=O)c2ccc([N+](=O)[O-])cc2)c1 | -46.5
42 | COc1cc(/C=N\NC(=O)c2ccc(=O)[nH]n2)cc(OC)c1OC | 17.3
43 | Cc1ccc(N)cc1N | 8.58
44 | CN(Cc1ccc(F)cc1)C(=O)COc1ccc2ccccc2c1 | -8.79
45 | COc1cc(CNCCO)ccc1OC1CCCC1.Cl | -6.23
46 | COC(=O)C(Cc1ccc(O)cc1)NC(=O)C1CCN(S(=O)(=O)c2ccc(C)cc2)CC1 (stereo not drawn) | 12.4
47 | CCCCNS(=O)(=O)c1ccc(NS(=O)(=O)c2c(C)cc(C)cc2C)cc1 | -11.3
48 | O=C(N/N=C/c1ccnc2ccccc12)c1ccccc1O | 11.1
49 | COc1ccccc1NC(=O)N1c2ccc(F)cc2CCC1C (stereo not drawn) | -8.65
50 | CC(C)c1cc(C(=O)Nc2cc(Br)ccc2O)no1 | 17.9
51 | COc1ccc(Br)cc1/C=C\C(=O)NCc1cccnc1 | -27.2
52 | FC(F)Oc1ccc(N=C2SCC3CCCCN23)cc1 (stereo not drawn) | -16.7
53 | Cn1c2ccccc2c(=O)c2c(O)cccc21 | 15.8
54 | NC(=NCCc1c[nH]c2ccccc12)NS(=O)(=O)c1cc(F)ccc1F | 8.26
55 | CN(C)S(=O)(=O)c1cccc(NC(=O)COC(=O)CCC(=O)c2ccc(F)cc2)c1 | -36
56 | O=C(NCc1ccncc1)C(=O)N/N=C/c1ccc(OCc2ccccc2)cc1 | -35.5
57 | CCOc1ccc(S(=O)(=O)/N=C(/Nc2ccc(OC)cc2)c2ccccc2)cc1 | 4.41
